Screen size: about 52,000 compounds; about 1,700 (3.3%) were called active. Cut-off read from the data, not from the text of the source: active = survival mostly below about 52% (no sharp cut-off); inactive = mostly above about 56%. This is one part of the list.
Test system: Wild type
Assay: growth inhibition of S. aureus wild type versus tarO mutant, primary screen, teichoic acid synthesis inhibitors, RN4220, OD600 (AID 463173)
Conditions: S. aureus RN4220 wild type/DeltatarO growth, OD600, 18 h, stronger effect = lower value, screened at 18.75 µg/mL (by protocol)

Row | SMILES | survival
1 | N#Cc1ccc(NC(=O)COCc2cc(-c3ccco3)on2)cc1 | inactive: 91%
2 | COc1cc(CNC(=O)c2ccc3nc(Cc4ccccc4)oc3c2)cc(OC)c1OC | inactive: 148%
3 | COc1ccc(-c2c(C)c3cc(OC(=O)N4CCOCC4)ccc3oc2=O)cc1OC | inactive: 60%
4 | CC(CNC(=O)c1ccc(Cn2c(=O)c3cccn3c3cccnc32)cc1)c1ccccc1 (stereo not given) | inactive: 80%
5 | CNC(=O)C(C)SCc1ccccc1 (stereo not given) | inactive: 102%
6 | NC(=O)Cn1c(=O)n(CCCCCC(=O)NCc2ccc3c(c2)OCO3)c(=O)c2sccc21 | inactive: 91%
7 | COc1cccc(C(=O)CC2(O)C(=O)N(Cc3ccccc3)c3ccccc32)c1 (stereo not given) | inactive: 126%
8 | Cc1ccccc1C(=O)Nc1sc2c(c1C(=O)N1CCC(C)CC1)CCC(C)C2 (stereo not given) | active: 0%
9 | CCOc1cc2[nH]c(=O)n(CCCCC(=O)N3CCN(c4ccccc4OC)CC3)c(=O)c2cc1OCC | inactive: 64%
10 | C=CCn1c(SCc2cccnc2)nnc1-c1ccncc1 | inactive: 104%
11 | COc1cccc(Cn2nnc(C(=O)NCc3ccc(Cl)cc3Cl)c2N)c1 | inactive: 90%
12 | CCc1cccc(NC(=O)Cn2c(=O)n3nc(-c4cccc(F)c4)nc3c3ccccc32)c1 | inactive: 64%
13 | Cc1cn2c(=O)cc(COC(=O)c3ccc(NC(=O)c4ccccc4C)cc3)nc2s1 | inactive: 75%
14 | COc1ccc2c(c1)c1c(c(=O)n(-c3ccc(OC)c(OC)c3)c(=O)n1Cc1ccc(F)cc1)n2C | inactive: 71%
15 | Cc1ccccc1CS(=O)(=O)Cc1ccc(C(=O)NCCc2ccc(Cl)cc2)o1 | inactive: 88%
16 | CCOC(=O)C1CCCN(c2c(C(=O)c3ccccc3)cnc3ccc(F)cc23)C1 (stereo not given) | inactive: 22%
17 | CCOC(=O)N1CCC(NC(=O)c2cnn(-c3ccc(OC)cc3)c2C2CCN(C(=O)OC(C)(C)C)CC2)CC1 | inactive: 56%
18 | Cc1ccccc1NC(=O)COc1ccc2oc3c(c2c1)CCCC3 | inactive: 135%
19 | Cc1ccc(Cn2c(=O)n(-c3cccc(C(F)(F)F)c3)c(=O)c3c(C)c(C)sc32)c(C)c1 | inactive: 86%
20 | Cc1ccc(CSc2ncc(Cl)c(C(=O)Oc3ccccc3F)n2)cc1 | inactive: 90%
21 | Cc1cn(C)c(CC(=O)Nc2cccc(C#N)c2)c1C(=O)O | inactive: 76%
22 | O=C(CN1C(=O)COc2ccc(S(=O)(=O)N3CCCCCC3)cc21)N1CCN(c2ccc(F)cc2)CC1 | inactive: 86%
23 | COc1ccc(-c2cc3nc(C)c(CCC(=O)NCCc4ccc(Cl)cc4)c(C)n3n2)c(OC)c1 | inactive: 97%

Row | SMILES | survival
24 | Cc1ccc(Cn2c(=O)c3cccnc3n(Cc3ccc(C)cc3)c2=O)cc1 | inactive: 100%
25 | Cc1ccc(-c2nn3c(=O)cc(CN4CCN(C(=O)Nc5cccc(C(F)(F)F)c5)CC4)nc3s2)cc1 | inactive: 72%
26 | C=CCn1c(SC(C)C)nc2sc3c(c2c1=O)CCCC3 | inactive: 108%
27 | Cc1ccccc1OCCn1cc(C(=O)c2ccco2)c2ccccc21 | inactive: 34%
28 | O=C(Oc1ccc2c(=O)c(Cl)coc2c1)c1cccnc1 | inactive: 95%
29 | COc1ccc(OC)c(C2CC(=O)c3c([nH]c(C(=O)OCc4ccc(C)cc4)c3C)C2)c1 (stereo not given) | inactive: 84%
30 | Clc1ccc(-c2noc3ncnc(NC4CCCCC4)c23)cc1 | inactive: 20%
31 | Cc1ccc(CCNC(=O)c2cnc3c(-c4ccc(F)cc4)c(C)nn3c2C)cc1 | inactive: 134%
32 | O=C(CCn1c(=O)c2ccccc2n(Cc2cccc(F)c2)c1=O)NCc1ccc2c(c1)OCO2 | inactive: 109%
33 | CCOc1ccc(CN2CCN(Cc3ccc4c(c3)c3ccccc3n4CC)CC2)cc1 | active: -1%
34 | CCOC(=O)C1=C(C)NC(=O)NC1c1c(O)ccc2ccccc12 (stereo not given) | inactive: 111%
35 | CCc1nn(CC(=O)NCc2ccc(C)cc2)c(=O)c2cc3occc3n12 | inactive: 128%
36 | CCOc1ccc(C(=O)/C=C/c2cn(CC(O)CN3CCc4ccccc43)c3ccccc23)cc1 (stereo not given) | inactive: 69%
37 | Cc1ccc(-c2c(C(=O)N3CCN(c4ccc(F)cc4)CC3)oc(=O)c3ccccc23)cc1 | inactive: 124%
38 | Cc1cc(C)cc(N2C(=O)N(Cc3cc(=O)n4ccccc4n3)c3ccccc3S2(=O)=O)c1 | inactive: 127%
39 | COc1cc(OC)c(OC)cc1CN1CCc2nc(N3CCN(C)CC3)ncc2C1 | inactive: 82%
40 | COc1ccc(N2CCN(c3nc4ccc(C(=O)c5ccccc5)cc4n4cnnc34)CC2)cc1 | inactive: 73%
41 | Cc1cccc2c1-c1sc(C(=O)NCCCN3CCN(c4ccccc4F)CC3)cc1CO2 | inactive: 84%
42 | COc1ccc(CNC(=O)Cc2coc3ccc(C)cc23)cc1 | inactive: 112%
43 | Cc1ccc(NC(=O)c2oc3ccc(S(=O)(=O)N4CCOCC4)cc3c2C)c(C)c1 | inactive: 140%
44 | O=C(CCS(=O)(=O)c1nc(-c2ccc3c(c2)OCO3)cc(C(F)(F)F)n1)Nc1ccc(Br)cc1 | inactive: 88%
45 | COc1ccc(NC(=O)Cc2c(C(=O)O)[nH]c3ccccc23)cc1OC | inactive: 83%
46 | NC(=O)CSc1nnc2c(n1)CCCC2 | inactive: 112%

Row | SMILES | survival
47 | COC(=O)c1cccnc1-n1c(=O)c2cccnc2n(CC(=O)Nc2cccc(C)c2)c1=O | inactive: 134%
48 | O=C1CC(c2c(F)cccc2Cl)c2c(ccc3ccccc23)N1 (stereo not given) | inactive: 78%
49 | COc1cc(C2c3c(oc4ccc(F)cc4c3=O)C(=O)N2Cc2ccc3c(c2)OCO3)ccc1O (stereo not given) | inactive: 95%
50 | CCCCN(CC)C(=O)c1c[nH]c2ccc(S(=O)(=O)N(C)c3ccc(Cl)cc3)cc2c1=O | inactive: 66%
51 | COc1ccc(C(=O)Nc2ccc3nc4c(c(Nc5ccccc5OC)c3c2)CCCC4)c(OC)c1 | inactive: 63%
52 | CC(C)Oc1ccc(CNC(=O)c2ccc3c(c2)nc2n3CCOC2)cc1 | inactive: 59%
53 | COc1cc(NC(=O)N2CCSc3ccccc32)cc(OC)c1OC | inactive: 64%
54 | CCN(c1ccccc1C)S(=O)(=O)c1nnc(NC(=O)c2ccccc2C)s1 | inactive: 26%
55 | CCOc1ccc(OCC)c(NC(=O)C2CCCN(S(=O)(=O)c3cc(Br)cc4c3N(C(=O)CC)CC4)C2)c1 (stereo not given) | inactive: 94%
56 | Cc1nc2nc(C)c(NS(=O)(=O)c3ccc(CC(C)C)cc3)c(=O)n2[nH]1 | inactive: 84%
57 | CCCc1nnc(NC(=O)Nc2ccccc2Cl)s1 | inactive: 120%
58 | CCOC(Cn1ccc(=O)[nH]c1=O)OCC | inactive: 108%
59 | S=C(c1ccncc1)N1CCOCC1 | inactive: 106%
60 | Cc1nn(C(=O)c2c(F)cccc2F)c(C)c1S(=O)(=O)N1CCCCCC1 | inactive: 82%
61 | CCn1c(CN2CCOCC2)nc2cc(NC(=O)c3cccc([N+](=O)[O-])c3)ccc21 | inactive: 82%
62 | COc1ccc(N=Nc2c(N)n[nH]c2N)cc1 | active: 2%
63 | Cc1c(CCC(=O)O)c(=O)[nH]c2ccccc12 | inactive: 116%
64 | COc1ccc(NC(=O)Cn2cc(C(=O)c3ccccc3OC)c(=O)c3ccc(C)nc32)cc1OC | inactive: 85%
65 | Cc1ccc(CN2CCC(CNC(=O)Nc3ccc(C)c(C)c3)C2)cc1 (stereo not given) | inactive: 94%
66 | O=C(CN1C(=O)C2C3C=CC(C3)C2C1=O)NCc1ccco1 (stereo not given) | inactive: 108%
67 | CC(=O)Nc1nnc2n1CCS2 | inactive: 54%
68 | COc1ccc(C)cc1NC(=O)c1nnn(-c2c(C)cccc2C)c1C | inactive: 93%
69 | CCOC(=O)c1ccc(N2CCN(c3cc(C)ccc3C)CC2)c(NC(=O)Nc2ccc(Cl)cc2)c1 | inactive: 56%

Row | SMILES | survival
70 | Cc1ccc(C)c(NC(=O)/C(C#N)=C/c2ccc(C(C)C)cc2)c1 | inactive: 77%
71 | COc1ccc(C)cc1NC(=O)c1oc2ccc(S(=O)(=O)N3CCC4(CC3)OCCO4)cc2c1C | inactive: 86%
72 | CCOc1ccc(C2C(C(=O)Nc3ccccc3C)=C(C)Nc3nnnn32)cc1 (stereo not given) | inactive: 63%
73 | CC(C)N(C(=O)Cn1cc(SCC(=O)Nc2ccccc2C(F)(F)F)c2ccccc21)C(C)C | inactive: 105%
74 | Cc1ccc(-c2nc(CCNC(=O)C(=O)Nc3c(C)cccc3C)cs2)cc1 | active: 0%
75 | COc1cc(NC(=O)CN2Cc3ccccc3C2=O)cc(OC)c1OC | inactive: 73%
76 | COC(=O)c1[nH]c2ccc(F)cc2c1N | inactive: 113%
77 | COc1ccccc1/C=C/c1nc(C#N)c(NCC(C)C)o1 | inactive: 65%
78 | CC1=[N+](CCO)c2ccccc2C1(C)C | inactive: 110%
79 | CCOCCn1cnc2sc(C(=O)Nc3ccccc3C(=O)OC)c(C)c2c1=O | inactive: 131%
80 | CCOc1ccc(NC(=O)Cn2nc(Cc3ccncc3)c3ccccc3c2=O)cc1 | inactive: 108%
81 | COc1ccc(N2C(=O)CSC23C(=O)N(Cc2ccc(C)cc2)c2ccccc23)cc1Cl (stereo not given) | inactive: 135%
82 | CCOc1cccc(CC(=O)N2CCc3c([nH]c4ccccc34)C2c2ccc(SC)cc2)c1OCC (stereo not given) | inactive: 133%
83 | CC(C)Cn1c(=O)c2ccccc2n2c(CCC(=O)Nc3ccc(F)cc3)nnc12 | inactive: 84%
84 | CCCN(CCC)C(=O)c1nn(C)c2c1CSc1ccc(C)cc1-2 | inactive: 83%
85 | COc1ccc(-n2ccnc(NCc3ccccc3Cl)c2=O)cc1OC | inactive: 71%
86 | CCOC(=O)c1cc(-c2ccccc2)n(CCCC(=O)Nc2ccccc2C)c1C | inactive: 97%
87 | COc1ccc(C(=O)c2oc3ccccc3c2NC(=O)c2cccc(OC)c2)cc1 | inactive: 79%
88 | COc1ccc(CNC(=O)c2sc3nc4n(c(=O)c3c2C)CCCCC4)cc1 | inactive: 86%
89 | Clc1cccc(C2=NC(c3cccs3)=Nc3ccc(Br)cc3N2)c1 | inactive: 79%
90 | CCc1ccc(NC(=O)CN2C(=O)c3ccccc3Sc3ccc(C(=O)N4CCCC4)cc32)cc1 | inactive: 82%

Source: PubChem BioAssay AID463173 (ICCB-Longwood Screening Facility, Harvard Medical School, 2010)
